From paper PMC5700166
This is a selection; strong and weak results do not stand in their true shares. The list includes weakly bound sequences.

Key:
Test in all cases: protein-binding microarray (PBM)
Details in all cases: PBM: ~300 nM protein, 6 mM HEPES pH 7.8, 80 mM KCl, 0.5 mM EDTA, 0.5 mM EGTA, 6% glycerol, 35 ng/ul poly-dIdC, 1% milk, 1 h, room temperature; Ap Aiptasia and Nv Nematostella (sea anemones) / Co Capsaspora / Aq Amphimedon (sponge) / Dm Drosophila / Hu human; RHD is the Rel homology domain; high values mean tight binding; most listed sequences are background and not binding sites; double strand, one strand shown
[1] = target: T1, GST-Ap-NF-kB RHD (UniProt A0A913YAJ5)
T1 sequence: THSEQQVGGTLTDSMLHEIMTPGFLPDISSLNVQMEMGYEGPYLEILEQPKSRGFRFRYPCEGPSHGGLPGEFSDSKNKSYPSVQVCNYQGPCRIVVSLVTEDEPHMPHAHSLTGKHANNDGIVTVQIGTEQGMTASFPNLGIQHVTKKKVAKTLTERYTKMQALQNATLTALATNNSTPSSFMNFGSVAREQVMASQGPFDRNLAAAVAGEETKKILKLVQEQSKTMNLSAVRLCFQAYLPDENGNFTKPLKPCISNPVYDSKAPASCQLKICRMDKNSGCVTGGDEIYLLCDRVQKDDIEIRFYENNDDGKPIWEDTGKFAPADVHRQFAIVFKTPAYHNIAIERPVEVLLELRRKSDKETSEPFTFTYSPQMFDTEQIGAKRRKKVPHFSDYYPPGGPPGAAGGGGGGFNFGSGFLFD

[2] = target: T2, GST-Nv-NF-kB (Cys allele) (UniProt E5G601)
T2 sequence: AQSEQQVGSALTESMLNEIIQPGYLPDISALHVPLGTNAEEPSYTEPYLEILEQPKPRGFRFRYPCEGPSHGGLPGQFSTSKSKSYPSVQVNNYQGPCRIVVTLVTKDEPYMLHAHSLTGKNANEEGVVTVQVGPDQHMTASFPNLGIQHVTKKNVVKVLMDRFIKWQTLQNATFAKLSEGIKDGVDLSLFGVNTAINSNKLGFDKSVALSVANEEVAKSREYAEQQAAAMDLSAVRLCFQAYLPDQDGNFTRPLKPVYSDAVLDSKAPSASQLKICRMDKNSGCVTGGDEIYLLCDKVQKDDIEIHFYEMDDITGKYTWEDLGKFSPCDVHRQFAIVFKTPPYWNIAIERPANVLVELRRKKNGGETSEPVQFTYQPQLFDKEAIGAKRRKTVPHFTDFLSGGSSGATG

[3] = target: T3, GST-Co-NF-kB (UniProt F1ARL5)
T3 sequence: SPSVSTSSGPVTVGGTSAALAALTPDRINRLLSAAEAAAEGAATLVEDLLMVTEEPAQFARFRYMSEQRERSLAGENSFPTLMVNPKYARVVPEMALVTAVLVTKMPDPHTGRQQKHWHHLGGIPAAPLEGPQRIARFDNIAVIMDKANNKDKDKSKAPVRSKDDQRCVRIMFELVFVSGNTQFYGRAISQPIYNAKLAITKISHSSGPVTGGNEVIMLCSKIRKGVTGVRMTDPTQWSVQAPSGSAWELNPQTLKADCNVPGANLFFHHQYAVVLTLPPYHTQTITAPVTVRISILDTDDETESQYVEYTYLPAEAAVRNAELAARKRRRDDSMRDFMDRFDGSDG

[4] = target: T4, GST-Dm-Relish (UniProt Q94527)
T4 sequence: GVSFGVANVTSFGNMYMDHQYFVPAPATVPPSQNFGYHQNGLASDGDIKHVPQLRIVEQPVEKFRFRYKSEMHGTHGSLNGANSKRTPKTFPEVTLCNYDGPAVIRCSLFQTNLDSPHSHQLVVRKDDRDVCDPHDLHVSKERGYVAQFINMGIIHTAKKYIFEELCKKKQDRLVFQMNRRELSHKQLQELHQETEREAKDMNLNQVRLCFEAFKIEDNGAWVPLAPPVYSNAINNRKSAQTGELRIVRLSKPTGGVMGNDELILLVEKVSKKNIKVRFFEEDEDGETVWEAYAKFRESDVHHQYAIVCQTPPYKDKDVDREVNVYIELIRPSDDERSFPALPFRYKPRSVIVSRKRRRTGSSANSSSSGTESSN

[5] = target: T5, GST-Aq-NF-kB (UniProt A9Y5G7)
T5 sequence: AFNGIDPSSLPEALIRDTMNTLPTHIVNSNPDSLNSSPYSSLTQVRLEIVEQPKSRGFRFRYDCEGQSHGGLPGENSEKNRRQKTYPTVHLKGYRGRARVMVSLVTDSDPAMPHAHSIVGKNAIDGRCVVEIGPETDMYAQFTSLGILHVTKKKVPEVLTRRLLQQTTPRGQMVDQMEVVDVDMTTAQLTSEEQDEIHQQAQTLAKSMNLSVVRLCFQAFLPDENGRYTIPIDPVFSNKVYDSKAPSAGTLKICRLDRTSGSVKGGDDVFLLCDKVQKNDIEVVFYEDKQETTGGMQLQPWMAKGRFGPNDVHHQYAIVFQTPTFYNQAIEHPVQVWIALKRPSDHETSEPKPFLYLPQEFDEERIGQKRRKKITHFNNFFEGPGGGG

CCGATTAACATCAAGATTCATATTGATGTTAATCGGGTCTTGATTCGCTTGACGCTGCTG
binding signal [1]: -0.791 z-score
binding signal [2]: -0.797 z-score
binding signal [3]: -1.1 z-score
binding signal [4]: -1.04 z-score
binding signal [5]: -0.809 z-score

CCGATTAACATCACGCGAGCAAGTGATGTTAATCGGGTCTTGATTCGCTTGACGCTGCTG
binding signal [1]: -0.253 z-score
binding signal [2]: -0.333 z-score
binding signal [3]: -0.886 z-score
binding signal [4]: 0.25 z-score
binding signal [5]: -0.217 z-score

CCGATTAACATCATGATATGCTTTGATGTTAATCGGGTCTTGATTCGCTTGACGCTGCTG
binding signal [1]: -0.961 z-score
binding signal [2]: 0.25 z-score
binding signal [3]: 0.337 z-score
binding signal [4]: -0.363 z-score
binding signal [5]: -0.42 z-score

CCGATTAACATCACGGGCATCCTTGATGTTAATCGGGTCTTGATTCGCTTGACGCTGCTG
binding signal [1]: 0.181 z-score
binding signal [2]: -0.195 z-score
binding signal [3]: -0.548 z-score
binding signal [4]: 0.581 z-score
binding signal [5]: 0.42 z-score

CCGATTAACATCACACTATCTACTGATGTTAATCGGGTCTTGATTCGCTTGACGCTGCTG
binding signal [1]: 0.0945 z-score
binding signal [2]: 0.124 z-score
binding signal [3]: 0.471 z-score
binding signal [4]: 0.283 z-score
binding signal [5]: -0.268 z-score

CCGATTAACATCAGGAACTCTCCTGATGTTAATCGGGTCTTGATTCGCTTGACGCTGCTG
binding signal [1]: -0.722 z-score
binding signal [2]: -0.587 z-score
binding signal [3]: -0.616 z-score
binding signal [4]: -0.807 z-score
binding signal [5]: -0.0132 z-score

CCGATTAACATCATGTCTACCAGTGATGTTAATCGGGTCTTGATTCGCTTGACGCTGCTG
binding signal [1]: -0.324 z-score
binding signal [2]: -1.02 z-score
binding signal [3]: 0.413 z-score
binding signal [4]: 0.0303 z-score
binding signal [5]: -0.315 z-score

CCGATTAACATCACCAAAATTCCTGATGTTAATCGGGTCTTGATTCGCTTGACGCTGCTG
binding signal [1]: 0.548 z-score
binding signal [2]: 0.437 z-score
binding signal [3]: 0.389 z-score
binding signal [4]: 1.01 z-score
binding signal [5]: 1.17 z-score

CCGATTAACATCATGTATTCCGATGATGTTAATCGGGTCTTGATTCGCTTGACGCTGCTG
binding signal [1]: -0.214 z-score
binding signal [2]: -0.166 z-score
binding signal [3]: -0.0711 z-score
binding signal [4]: 0.456 z-score
binding signal [5]: -0.175 z-score

CCGATTAACATCATTAGCCCTTCTGATGTTAATCGGGTCTTGATTCGCTTGACGCTGCTG
binding signal [1]: 0.0667 z-score
binding signal [2]: -0.373 z-score
binding signal [3]: 0.00102 z-score
binding signal [4]: -0.961 z-score
binding signal [5]: -0.231 z-score

CCGATTAACATCATAGACACGTGTGATGTTAATCGGGTCTTGATTCGCTTGACGCTGCTG
binding signal [1]: -0.209 z-score
binding signal [2]: -0.469 z-score
binding signal [3]: -0.554 z-score
binding signal [4]: 0.00576 z-score
binding signal [5]: -0.29 z-score

CCGATTAACATCAAAGAGATACGTGATGTTAATCGGGTCTTGATTCGCTTGACGCTGCTG
binding signal [1]: -0.742 z-score
binding signal [2]: -0.0785 z-score
binding signal [3]: 0.341 z-score
binding signal [4]: -0.342 z-score
binding signal [5]: -0.529 z-score

CCGATTAACATCAGCGGTGATATTGATGTTAATCGGGTCTTGATTCGCTTGACGCTGCTG
binding signal [1]: 0.841 z-score
binding signal [2]: 0.199 z-score
binding signal [3]: 0.291 z-score
binding signal [4]: 0.577 z-score
binding signal [5]: 0.248 z-score

CCGATTAACATCAGCACGGCATGTGATGTTAATCGGGTCTTGATTCGCTTGACGCTGCTG
binding signal [1]: -0.229 z-score
binding signal [2]: 0.333 z-score
binding signal [3]: -0.0423 z-score
binding signal [4]: 0.654 z-score
binding signal [5]: -0.341 z-score

CCGATTAACATCAGGAATATTCCTGATGTTAATCGGGTCTTGATTCGCTTGACGCTGCTG
binding signal [1]: 0.426 z-score
binding signal [2]: 1.22 z-score
binding signal [3]: -0.478 z-score
binding signal [4]: 0.951 z-score
binding signal [5]: 1.34 z-score

CCGATTAACATCACAAGGCGTTATGATGTTAATCGGGTCTTGATTCGCTTGACGCTGCTG
binding signal [1]: -0.0133 z-score
binding signal [2]: -0.336 z-score
binding signal [3]: -0.211 z-score
binding signal [4]: -0.405 z-score
binding signal [5]: -0.19 z-score

CCGATTAACATCAGGATTGCCCATGATGTTAATCGGGTCTTGATTCGCTTGACGCTGCTG
binding signal [1]: 0.227 z-score
binding signal [2]: 0.107 z-score
binding signal [3]: 0.534 z-score
binding signal [4]: 0.763 z-score
binding signal [5]: 0.887 z-score

CCGATTAACATCAAGTTTCGTCGTGATGTTAATCGGGTCTTGATTCGCTTGACGCTGCTG
binding signal [1]: -0.622 z-score
binding signal [2]: 0.205 z-score
binding signal [3]: 0.219 z-score
binding signal [4]: -0.221 z-score
binding signal [5]: -0.621 z-score

CCGATTAACATCATAGACCACATTGATGTTAATCGGGTCTTGATTCGCTTGACGCTGCTG
binding signal [1]: -0.116 z-score
binding signal [2]: -0.384 z-score
binding signal [3]: 0.33 z-score
binding signal [4]: -0.563 z-score
binding signal [5]: -0.495 z-score

CCGATTAACATCATATTGGATCTTGATGTTAATCGGGTCTTGATTCGCTTGACGCTGCTG
binding signal [1]: -0.59 z-score
binding signal [2]: -0.405 z-score
binding signal [3]: -0.502 z-score
binding signal [4]: -0.719 z-score
binding signal [5]: -0.4 z-score

CCGATTAACATCATTCGAATATGTGATGTTAATCGGGTCTTGATTCGCTTGACGCTGCTG
binding signal [1]: -1.14 z-score
binding signal [2]: -0.654 z-score
binding signal [3]: -0.379 z-score
binding signal [4]: 0.165 z-score
binding signal [5]: -0.668 z-score

CCGATTAACATCAACCTCAGCGCTGATGTTAATCGGGTCTTGATTCGCTTGACGCTGCTG
binding signal [1]: 0.277 z-score
binding signal [2]: -4.42e-05 z-score
binding signal [3]: -0.26 z-score
binding signal [4]: -0.485 z-score
binding signal [5]: -0.417 z-score

CCGATTAACATCACTAGGTAGTCTGATGTTAATCGGGTCTTGATTCGCTTGACGCTGCTG
binding signal [1]: 0.775 z-score
binding signal [2]: 0.18 z-score
binding signal [3]: 0.576 z-score
binding signal [4]: -0.048 z-score
binding signal [5]: 0.153 z-score

CCGATTAACATCACCGTTTAGGTTGATGTTAATCGGGTCTTGATTCGCTTGACGCTGCTG
binding signal [1]: 0.0382 z-score
binding signal [2]: 0.291 z-score
binding signal [3]: -0.242 z-score
binding signal [4]: 0.731 z-score
binding signal [5]: 0.0671 z-score

CCGATTAACATCACTACACCAAATGATGTTAATCGGGTCTTGATTCGCTTGACGCTGCTG
binding signal [1]: 0.379 z-score
binding signal [2]: -0.628 z-score
binding signal [3]: 0.51 z-score
binding signal [4]: -0.0614 z-score
binding signal [5]: -0.227 z-score

CCGATTAACATCATCTCACATGTTGATGTTAATCGGGTCTTGATTCGCTTGACGCTGCTG
binding signal [1]: -0.739 z-score
binding signal [2]: -0.545 z-score
binding signal [3]: 0.189 z-score
binding signal [4]: -0.376 z-score
binding signal [5]: -0.519 z-score

CCGATTAACATCACCGCAGGCATTGATGTTAATCGGGTCTTGATTCGCTTGACGCTGCTG
binding signal [1]: -0.273 z-score
binding signal [2]: -0.247 z-score
binding signal [3]: -0.616 z-score
binding signal [4]: 0.224 z-score
binding signal [5]: -0.128 z-score

CCGATTAACATCATAAAATTCCATGATGTTAATCGGGTCTTGATTCGCTTGACGCTGCTG
binding signal [1]: -0.287 z-score
binding signal [2]: 0.391 z-score
binding signal [3]: -0.35 z-score
binding signal [4]: 1.32 z-score
binding signal [5]: 1.26 z-score
